# Results from the supplement of paper PMC3334620.
# Whole data set: some 33,000 sequences, median “E-score (-0.5 to 0.5)” near -0.016, cut for the highest 2% near 0.32. Some of the results follow.
# Biological target: T1, Stp1 (UniProt B3LFK1)
# T1 sequence: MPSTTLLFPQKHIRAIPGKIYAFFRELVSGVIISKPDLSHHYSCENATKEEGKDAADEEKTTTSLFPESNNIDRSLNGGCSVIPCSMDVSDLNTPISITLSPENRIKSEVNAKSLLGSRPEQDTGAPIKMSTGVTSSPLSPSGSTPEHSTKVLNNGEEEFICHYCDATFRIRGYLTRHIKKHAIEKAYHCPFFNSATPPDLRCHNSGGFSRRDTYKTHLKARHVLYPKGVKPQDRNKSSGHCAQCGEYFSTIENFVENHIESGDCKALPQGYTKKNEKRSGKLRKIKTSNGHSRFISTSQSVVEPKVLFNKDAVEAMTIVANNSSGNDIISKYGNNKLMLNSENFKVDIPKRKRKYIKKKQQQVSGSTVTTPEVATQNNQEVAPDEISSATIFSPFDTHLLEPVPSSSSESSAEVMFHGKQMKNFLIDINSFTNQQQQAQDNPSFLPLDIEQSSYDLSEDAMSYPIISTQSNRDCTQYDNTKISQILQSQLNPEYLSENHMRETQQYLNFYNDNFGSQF
# Experiment: PBM E-score (8-mer binding enrichment) (E-score (-0.5 to 0.5)); higher = stronger / more preferred TF binding; most listed sequences are background and not binding sites
# Settings: protein concentration: 200 nM; construct: GST-full length
# In short: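 Bound GST-tagged yeast transcription factors, applied at about 100-200 nM to double-stranded universal all-10-mer Agilent arrays, were detected with fluorescent anti-GST. Scans were normalised with masliner. A modified Wilcoxon-Mann-Whitney statistic, the E-score, was assigned to each ungapped eight-base word pooled with its reverse complement by the Universal PBM Analysis Suite.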
row,Sequence,PBM E-score
1,ACGAAAGA,0.0615
2,TGATTGAA,0.155
3,CTCGTAAA,0.0114
4,CATGTTTC,0.249
5,ATTTATCA,0.175
6,AGGCCCGA,-0.286
7,ATGCGTGG,-0.184
8,ACTAGATC,-0.0829
9,GACCTCGA,-0.146
10,ACCTAACG,0.0487
11,ATCCGTGA,0.00902
12,ATCTAAGG,-0.143
13,CAAGGATC,0.0757
14,CCCGGCAG,-0.227
15,AGACCGTA,-0.189
16,TTGAACAA,0.0506
17,AAAGTGTA,-0.154
18,TCGCTTAA,0.143
19,TATCCTGA,0.0787
20,ACCGCGCG,0.209
21,ATAAGACG,-0.0885
22,ACATCTCA,-0.0212
23,ATTACCAG,0.122
24,ACGGGTCC,-0.0534
25,TTCTAGAA,0.0654

row,Sequence,PBM E-score
1,ACAACTGG,-0.127
2,CAGCAGGG,-0.186
3,CCCTCCAC,-0.16
4,CGTCACAC,-0.104
5,GATATCCA,0.143
6,ATCAAAAA,0.0976
7,CGTGACTC,-0.197
8,TACAAAAA,0.0816
9,AACATTAG,-0.14
10,GACGTTGA,-0.0706
11,CGGGCCGC,0.236
12,AGCAGGCG,-0.0422
13,GCACAGGC,0.057
14,CAGACGGC,0.42
15,TGCCGCAA,0.333
16,ACCAAGTC,-0.125
17,CTCACCAG,-0.213
18,CGGTGCAA,-0.0137
19,ACGCATGA,-0.168
20,CCCCGACA,-0.12
21,AATTCCGT,0.141
22,ACGTACCT,-0.226
23,CCTCACGC,0.253
24,CAATTCAC,0.142
25,TGAGCACA,-0.0425

row,Sequence,PBM E-score
1,CTCAGCTA,-0.117
2,AGAAACTA,0.0167
3,AGGAACAT,-0.0768
4,TATGAGAA,0.00837
5,CTAACTGA,0.00597
6,CGGGCTAC,-0.216
7,AGCTTTTA,0.0944
8,CGTCCACG,0.112
9,ATAATTCG,0.137
10,CAAGTAGC,-0.103
11,GATCAATA,0.0923
12,AAGAAGAG,0.00115
13,AGTCCACC,-0.144
14,AGTGGGCA,0.0851
15,CTCTGGGA,-0.0974
16,CGAGATAC,0.149
17,GAAATACA,-0.00264
18,GTGGTCAA,-0.128
19,ACGCGAAC,-0.138
20,CGTGTCTA,0.0481
21,GCGTGGAC,-0.126
22,ACCATGGA,-0.131
23,TGTACTAA,0.193
24,GCGACGCA,-0.0317
25,CGATGCGA,0.0342

row,Sequence,PBM E-score
1,GAAACAAA,0.221
2,CTAGCTAG,-0.00873
3,AGGTGGAG,-0.182
4,AACCAGGT,-0.227
5,ACTTTCGC,-0.0606
6,AGGGCCGC,0.168
7,AACCGCGC,0.167
8,GAAGTTCA,0.147
9,AGCTCTGA,-0.164
10,AATAGCAT,-0.021
11,AAAGAAAG,-0.0331
12,AATTCTCA,-0.0957
13,AGCGACCT,-0.259
14,GCTAGTCC,-0.187
15,AGACGACC,-0.178
16,ACGAGCGG,0.261
17,GTACGGAC,0.201
18,GAATTACC,-0.0591
19,GGCTGCCC,-0.184
20,GGCTGATA,0.105
21,AGGAGCGC,-0.11
22,ATTTCTCG,0.265
23,ATCGTGGC,0.0773
24,GGGGATTA,-0.269
25,TGCAAAAA,0.0634

row,Sequence,PBM E-score
1,CCGGTTGA,0.0433
2,CGAGTATC,-0.246
3,ACAGGGGG,-0.28
4,AAATGGAT,-0.0982
5,CAACCAGC,-0.322
6,ATCCCGGA,-0.309
7,GCGCCAGC,0.0628
8,CACAGTCA,-0.264
9,ACGTACCC,-0.015
10,CGTTTCAG,0.217
11,AGCATGAG,-0.115
12,CATTTACC,0.0269
13,TCAGCGGA,0.0468
14,CATTCATC,-0.21
15,CGAAAACG,0.207
16,GTGTGGGA,-0.0906
17,CCTTATAA,0.0183
18,CGTCAAAG,0.0585
19,AATATGTG,0.211
20,AATGATCT,-0.0535
21,GCCTTATA,0.232
22,CGGATGGA,-0.0835
23,ACAGTACC,0.0208
24,ACAACTCG,0.0262
25,ATCGAACC,-0.0352

row,Sequence,PBM E-score
1,AGGATTAT,-0.0874
2,CAGGCATC,-0.0407
3,CCAAAAGC,0.0456
4,AGCATACC,-0.18
5,ATCAGGTG,-0.073
6,ATGTATCG,0.104
7,GTGTAAAC,0.0438
8,AAGGCATC,0.292
9,CTAAAGCA,0.0413
10,AGAGACTC,-0.182
11,CGAGTGCG,0.124
12,CTAGAGTC,-0.33
13,CTTCTTCC,-0.345
14,AAGACGAC,-0.0773
15,AGCCAACC,-0.11
16,TGAGATCA,0.0358
17,ACACTGCA,-0.12
18,ACGTTTGG,-0.134
19,ACCGGGGA,-0.205
20,GAGAGGAA,-0.144
21,CGCGTCAG,-0.144
22,ATACTCAT,-0.0632
23,AATCAAAT,0.0218
24,ACCAGAAC,0.0149
25,AGAAAGGA,0.031

row,Sequence,PBM E-score
1,ATTTAACA,0.165
2,ATGGACAA,0.0579
3,AGGGTATG,-0.182
4,AGGCAGGC,-0.178
5,CCAATTCC,0.0111
6,ATTATCGC,0.195
7,CGGAAAAA,0.13
8,AACTGTGG,-0.116
9,GCGTGTCC,0.0627
10,ACACATGT,-0.0142
11,ATCCGCTA,0.0033
12,CATTCAGA,0.0253
13,GGTTGAAC,-0.141
14,ACCTGGGC,-0.282
15,AAGAATCA,0.107
16,CATTAACG,-0.0249
17,CCCCGGGG,-0.156
18,GCACGTGA,0.135
19,AACTTAAC,0.0947
20,ACTACTTG,-0.14
21,ATTTCTAC,-0.0455
22,ATACCGTG,0.165
